Experimental data from paper PMC11329725 (Nature Communications, 2024).

T1: His6-HDOB1 (human BRCA2 helical domain and OB fold 1, residues 2479-2807) (human, UniProt P51587 2479-2807)
T1 sequence: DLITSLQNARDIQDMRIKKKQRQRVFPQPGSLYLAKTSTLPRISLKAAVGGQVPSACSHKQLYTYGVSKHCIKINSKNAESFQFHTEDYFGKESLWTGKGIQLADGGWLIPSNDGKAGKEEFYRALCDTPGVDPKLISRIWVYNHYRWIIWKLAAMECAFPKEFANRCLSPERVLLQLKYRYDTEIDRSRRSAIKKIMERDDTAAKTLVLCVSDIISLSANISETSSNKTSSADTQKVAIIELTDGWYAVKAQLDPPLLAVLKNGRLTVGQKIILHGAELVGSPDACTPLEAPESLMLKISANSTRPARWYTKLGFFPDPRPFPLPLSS


Molecular target: T1, His6-HDOB1 (human BRCA2 helical domain …)
Assay: pull-down

binding result	Binder
binds	GST-DSS1 […], co-expressed with His6-HDOB1 in E. coli (domain or fragment) not shown
binds	GST-DSS1 R57Q, co-expressed with His6-HDOB1 in E. coli (natural protein) not shown
